Test results as given in the supplement of paper PMC8728848.
This is one part of the list.

Key:
Experiment in all cases: glycan array binding signal (z-score within array); higher = stronger binding
Conditions in all cases: glycan notation: IUPAC condensed, linker removed
[1] = target: Gal(b1-4)GlcNAc(b1-3)[GlcNAc(b1-6)]Gal(b1-4)GlcNAc
Summary of the method: (§1)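 Columns mapping to the same glycan were averaged after glycan names were converted to IUPAC-condensed notation. The data come from 3228 arrays in the Consortium for Functional Glycomics database, limited to those with an available protein sequence. Binding is reported as a within-array Z-score averaged across arrays of one protein sequence and across linkers.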

[2] = target: Gal(b1-4)GlcNAc(b1-6)Gal(b1-4)GlcNAc
Summary of the method: as §1

[3] = target: Gal(b1-4)GlcNAc(b1-6)Gal(b1-4)GlcNAc(b1-6)GalNAc
Summary of the method: as §1

[4] = target: Gal(b1-4)GlcNAc(b1-6)GalNAc
Summary of the method: as §1

[5] = target: Gal(b1-4)GlcNAc(b1-6)[Gal(b1-3)]GalNAc
Summary of the method: as §1

Gal3S(b1-3)GalNAc = target: Gal3S(b1-3)GalNAc
Summary of the method: as §1

Gal3S(b1-3)GlcNAc = target: Gal3S(b1-3)GlcNAc
Summary of the method: as §1

[6] = target: Gal3S(b1-3)[Fuc(a1-4)]GlcNAc
Summary of the method: as §1

Gal3S(b1-4)Glc = target: Gal3S(b1-4)Glc
Summary of the method: as §1

Gal3S(b1-4)Glc6S = target: Gal3S(b1-4)Glc6S
Summary of the method: as §1

Gal3S(b1-4)GlcNAc = target: Gal3S(b1-4)GlcNAc
Summary of the method: as §1

Gal3S(b1-4)GlcNAc6S = target: Gal3S(b1-4)GlcNAc6S
Summary of the method: as §1

[7] = target: Gal3S(b1-4)[Fuc(a1-3)]Glc
Summary of the method: as §1

Gal3S4S(b1-4)GlcNAc = target: Gal3S4S(b1-4)GlcNAc
Summary of the method: as §1

Gal3S6S(b1-4)GlcNAc = target: Gal3S6S(b1-4)GlcNAc
Summary of the method: as §1

Gal3S6S(b1-4)GlcNAc6S = target: Gal3S6S(b1-4)GlcNAc6S
Summary of the method: as §1

Gal4S(b1-4)GlcNAc = target: Gal4S(b1-4)GlcNAc
Summary of the method: as §1

Gal4S6S(b1-4)GlcNAc = target: Gal4S6S(b1-4)GlcNAc
Summary of the method: as §1

Gal6S(b1-4)Glc = target: Gal6S(b1-4)Glc
Summary of the method: as §1

Gal6S(b1-4)Glc6S = target: Gal6S(b1-4)Glc6S
Summary of the method: as §1

Gal6S(b1-4)GlcNAc = target: Gal6S(b1-4)GlcNAc
Summary of the method: as §1

Gal6S(b1-4)GlcNAc6S = target: Gal6S(b1-4)GlcNAc6S
Summary of the method: as §1

GalNAc(a1-3)Gal = target: GalNAc(a1-3)Gal
Summary of the method: as §1

GalNAc(a1-3)GalNAc = target: GalNAc(a1-3)GalNAc
Summary of the method: as §1

GalNAc(b1-3)Gal = target: GalNAc(b1-3)Gal
Summary of the method: as §1

[8] = target: GalNAc(b1-3)Gal(a1-4)Gal(b1-4)GlcNAc
Summary of the method: as §1

[9] = target: GalNAc(b1-3)Gal(a1-4)Gal(b1-4)GlcNAc(b1-3)Gal(b1-4)Glc
Summary of the method: as §1

GalNAc(b1-3)GalNAc = target: GalNAc(b1-3)GalNAc
Summary of the method: as §1

GalNAc(b1-4)GlcNAc = target: GalNAc(b1-4)GlcNAc
Summary of the method: as §1

[10] = target: GalNAc(b1-4)GlcNAc(b1-2)Man(a1-3)[GalNAc(b1-4)GlcNAc(b1-2)Man(a1-6)]Man(b1-4)GlcNAc(b1-4)GlcNAc
Summary of the method: as §1

Glc(a1-4)Glc = target: Glc(a1-4)Glc
Summary of the method: as §1

Glc(a1-6)Glc(a1-6)Glc = target: Glc(a1-6)Glc(a1-6)Glc
Summary of the method: as §1

Glc(b1-4)Glc = target: Glc(b1-4)Glc
Summary of the method: as §1

Glc(b1-6)Glc = target: Glc(b1-6)Glc
Summary of the method: as §1

GlcA(b1-3)Gal = target: GlcA(b1-3)Gal
Summary of the method: as §1

GlcA(b1-3)GlcNAc = target: GlcA(b1-3)GlcNAc
Summary of the method: as §1

GlcA(b1-6)Gal = target: GlcA(b1-6)Gal
Summary of the method: as §1

B1: GALT1 615 (Arabidopsis thaliana), Q8L7F9 (protein)
chain: DPMRGSHHHHHHGMASMTGGQQMGRDLYDDDDKSRLQKPYITAAASVVVTPNTTLPMEWLRITLPDFMKEARNTQEAISGDDIAVVSGLFVEQNVSKEEREPLLTWNRLESLVDNAQSLVNGVDAIKEAGIVWESLVSAVEAKKLVDVNENQTRKGKEELCPQFLSKMNATEADGSSLKLQIPCGLTQGSSITVIGIPDGLVGSFRIDLTGQPLPGEPDPPIIVHYNVRLLGDKSTEDPVIVQNSWTASQDWGAEERCPKFDPDMNKKVDDLDECNKMVGGEINRTSSTSLQSNTSRGVPVAREASKHEKYFPFKQGFLSVATLRVGTEGMQMTVDGKHITSFAFRDTLEPWLVSEIRITGDFRLISILA
- glycan array binding signal (z-score) [1]: -0.254
- glycan array binding signal (z-score) [2]: -0.296
- glycan array binding signal (z-score) [3]: 0.586
- glycan array binding signal (z-score) [4]: -0.439
- glycan array binding signal (z-score) [5]: -0.304
- glycan array binding signal (z-score) (Gal3S(b1-3)GalNAc): 0.033
- glycan array binding signal (z-score) (Gal3S(b1-3)GlcNAc): -0.275
- glycan array binding signal (z-score) [6]: -0.195
- glycan array binding signal (z-score) (Gal3S(b1-4)Glc): -0.195
- glycan array binding signal (z-score) (Gal3S(b1-4)Glc6S): 0.03
- glycan array binding signal (z-score) (Gal3S(b1-4)GlcNAc): -0.208
- glycan array binding signal (z-score) (Gal3S(b1-4)GlcNAc6S): -0.044
- glycan array binding signal (z-score) [7]: -0.048
- glycan array binding signal (z-score) (Gal3S4S(b1-4)GlcNAc): -0.154
- glycan array binding signal (z-score) (Gal3S6S(b1-4)GlcNAc): -0.057
- glycan array binding signal (z-score) (Gal3S6S(b1-4)GlcNAc6S): -0.057
- glycan array binding signal (z-score) (Gal4S(b1-4)GlcNAc): -0.085
- glycan array binding signal (z-score) (Gal4S6S(b1-4)GlcNAc): -0.336
- glycan array binding signal (z-score) (Gal6S(b1-4)Glc): 0.153
- glycan array binding signal (z-score) (Gal6S(b1-4)Glc6S): 1.58
- glycan array binding signal (z-score) (Gal6S(b1-4)GlcNAc): 1.22
- glycan array binding signal (z-score) (Gal6S(b1-4)GlcNAc6S): -0.309
- glycan array binding signal (z-score) (GalNAc(a1-3)Gal): -0.139
- glycan array binding signal (z-score) (GalNAc(a1-3)GalNAc): -0.4
- glycan array binding signal (z-score) (GalNAc(b1-3)Gal): -0.01
- glycan array binding signal (z-score) [8]: -0.227
- glycan array binding signal (z-score) [9]: -0.554
- glycan array binding signal (z-score) (GalNAc(b1-3)GalNAc): -0.069
- glycan array binding signal (z-score) (GalNAc(b1-4)GlcNAc): -0.215
- glycan array binding signal (z-score) [10]: 0.204
- glycan array binding signal (z-score) (Glc(a1-4)Glc): 3.74
- glycan array binding signal (z-score) (Glc(a1-6)Glc(a1-6)Glc): -0.428
- glycan array binding signal (z-score) (Glc(b1-4)Glc): -0.378
- glycan array binding signal (z-score) (Glc(b1-6)Glc): -0.404
- glycan array binding signal (z-score) (GlcA(b1-3)Gal): -0.222
- glycan array binding signal (z-score) (GlcA(b1-3)GlcNAc): -0.443
- glycan array binding signal (z-score) (GlcA(b1-6)Gal): -0.165
